In the supplement of paper PMC10338343:
± gives the standard deviation. The list shows a part of the results, in another mix than the full data.

system: MIWI (PIWIL1) piRISC loaded with piRNA #1 (30 nt); assay: pre-steady-state target cleavage rate (min^-1); MIWI and MILI are mouse PIWI proteins and EfPiwi is from a freshwater sponge; tags in brackets are library labels; higher = faster piRNA-guided slicing of the target; details: guide: piRNA #1 5'p-UGAGGUAGUAGGUUGUAUAGUAUCCAGAGG; auxiliary factor: 500 nM mouse GTSF1
Method in brief: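 Active affinity-purified piRISC carrying one synthetic guide (1 nM) was mixed with a transcribed, DNA-blocked target RNA library […] in HEPES–potassium acetate buffer at 33 °C for 0–8 or 0–960 min, with or without 500 nM GTSF1 partner protein. Uncleaved targets were then sequenced and normalised to depth and to weakly complementary targets. Three trials were pooled, and k3 was capped at 0.0001 min^-1. A burst-and-steady-state fit was applied to obtain the pre-steady-state cleavage rate.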
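Note: 1 nM active piRISC with 0.1 nM target library at 33 °C single turnover.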

Sequence	pre-steady-state target cleavage rate
GCUCUGCAUACUAUACAACCUACUUCCUCA	0.419 ± 0.037
GGUCUCGAUACUAUACAACCAACUACCUCA	0.149 ± 0.015
GGAGACCUAUGUAUCCAACCUACUACCUCA	0.0106 ± 0.0018
GCUCUGGAUACUAUACAACCUACUACCCCA	1.03 ± 0.073
GGAGACCUAUGAUAUGUUCCUUCUACCACA	< 0.0001
GGUCUGGAUACUAUAAAACCUACUACCUCA	1.6 ± 0.1
GGAGACCUUACAAUACAACCUUCUACCUCA	0.0854 ± 0.015
CCUCUGGAUAGUAUUCAACCUACUACCUCA	0.132 ± 0.029
GGAGUGGAUACUAUACUAGCUACUACCUCA	0.437 ± 0.03
GGAGACCUAAGUAUACAACCUACUACGUCA	0.0708 ± 0.016
GGAGACCUUAUAUACAACCUACUACCUCA	0.0811 ± 0.0097
GGAGACCUUACUAUACAACCUACUACCGUCA	0.84 ± 0.062
GCUGUGGAUACUAAACAACCUACUACCUCA	1.76 ± 0.13
GGAGACCUAUCUAUUCAAGCUACUACCUCA	0.16 ± 0.021
GGAGACCUAUGAUAACAACCUCCUACCUCA	0.00268 ± 0.0026
GCUCUGGAUACUAUACAACCUACUACCUCCA	2.15 ± 0.14
GGAGACGUUACAAUACAACCUACUACCUCA	0.765 ± 0.097
GGAGAGGAUACUAUACAACCAUACUACCUCA	0.00328 ± 0.0031
GGAGACCUAUCUAUACAACCUACUUGGAGA [g7:g20:cont:t1A]	0.0168 ± 0.0052
GGAGAGGAUACUAUACAACCUGACUACCUCA	0.00377 ± 0.0021

Sequence	pre-steady-state target cleavage rate
CGUCUGGAUACUUUACAACCUACUACCUCA	1.86 ± 0.12
GGAGACGAUUCUUUACAACCUACUACCUCA	0.882 ± 0.088
CCUCUGGAUAGUAUACAACCUACUAGCUCA	0.085 ± 0.021
GGAGACGAAUGUAUACAACCUACUACCUCA	0.474 ± 0.054
GGACUCGAUACUAUACAACCUACAACCUCA	0.296 ± 0.039
GCUCUGGAACUAUACAACCUACUACCUCA	1.79 ± 0.11
CCUCUGGAUACUUUACAUCCUACUACCUCA	1.67 ± 0.11
GGAGACCAUACUAUACAACGUACUACCUGA	0.334 ± 0.041
GGACUGGAAACUAUACAACCUACUACGUCA	0.355 ± 0.053
GGACAGGAUACUUUACAACCUACUACCUCA	1.64 ± 0.12
CCUCUGGAUACUUUACAAGCUACUACCUCA	1.41 ± 0.076
GGAGACCUAUCUAUACAUGCUACUACCUCA	0.0898 ± 0.014
CCUCUGGAUUCUAUACAACCUAGUACCUCA	0.302 ± 0.054
GGACUGGAUACUAUCACAACCUACUACCUCA	1.36 ± 0.13
GGAGACGAUACUAUAGAACCUACUACGUCA	0.264 ± 0.048
CCUCUGGAUACAAUACAACCAACUACCUCA	0.159 ± 0.021
CCUCUGGAUACUAUACAAUCUACUACCUCA	0.592 ± 0.026
GGAGAGGAUACUAUACAACGUACUACCACA	0.529 ± 0.055
CCUCUGGAUACUAUACAACCCACUACCUCA	0.934 ± 0.041
GGAGACGAUACUAUUGUACCUACUACCUCA	0.0678 ± 0.0085
